{"source": "PubChem BioAssay AID1347165", "about": "(National Center for Advancing Translational Sciences (NCATS), 2019)", "note": "Screen size: about 220,000 compounds; about 5,700 (2.6%) were called active. The shares of active, inactive and inconclusive entries below differ from those in the screen. The call rests on the fitted dose curve; in most records, active means well fitted inhibition curve with a large enough effect; inconclusive means small, poorly fitted or top-dose-only effect; inactive means no such curve, though single readings can be large or run the other way. Potencies of inconclusive entries are doubtful fits and often do not repeat. Potency means the concentration at half of the fitted maximal effect; tags describe the fitted curve by direction and shape.", "data": [{"molecular_target": "Lysine-specific demethylase 5B (Homo sapiens) (UniProt Q9UGL1)", "sequence (Q9UGL1 whole entry, looked up)": "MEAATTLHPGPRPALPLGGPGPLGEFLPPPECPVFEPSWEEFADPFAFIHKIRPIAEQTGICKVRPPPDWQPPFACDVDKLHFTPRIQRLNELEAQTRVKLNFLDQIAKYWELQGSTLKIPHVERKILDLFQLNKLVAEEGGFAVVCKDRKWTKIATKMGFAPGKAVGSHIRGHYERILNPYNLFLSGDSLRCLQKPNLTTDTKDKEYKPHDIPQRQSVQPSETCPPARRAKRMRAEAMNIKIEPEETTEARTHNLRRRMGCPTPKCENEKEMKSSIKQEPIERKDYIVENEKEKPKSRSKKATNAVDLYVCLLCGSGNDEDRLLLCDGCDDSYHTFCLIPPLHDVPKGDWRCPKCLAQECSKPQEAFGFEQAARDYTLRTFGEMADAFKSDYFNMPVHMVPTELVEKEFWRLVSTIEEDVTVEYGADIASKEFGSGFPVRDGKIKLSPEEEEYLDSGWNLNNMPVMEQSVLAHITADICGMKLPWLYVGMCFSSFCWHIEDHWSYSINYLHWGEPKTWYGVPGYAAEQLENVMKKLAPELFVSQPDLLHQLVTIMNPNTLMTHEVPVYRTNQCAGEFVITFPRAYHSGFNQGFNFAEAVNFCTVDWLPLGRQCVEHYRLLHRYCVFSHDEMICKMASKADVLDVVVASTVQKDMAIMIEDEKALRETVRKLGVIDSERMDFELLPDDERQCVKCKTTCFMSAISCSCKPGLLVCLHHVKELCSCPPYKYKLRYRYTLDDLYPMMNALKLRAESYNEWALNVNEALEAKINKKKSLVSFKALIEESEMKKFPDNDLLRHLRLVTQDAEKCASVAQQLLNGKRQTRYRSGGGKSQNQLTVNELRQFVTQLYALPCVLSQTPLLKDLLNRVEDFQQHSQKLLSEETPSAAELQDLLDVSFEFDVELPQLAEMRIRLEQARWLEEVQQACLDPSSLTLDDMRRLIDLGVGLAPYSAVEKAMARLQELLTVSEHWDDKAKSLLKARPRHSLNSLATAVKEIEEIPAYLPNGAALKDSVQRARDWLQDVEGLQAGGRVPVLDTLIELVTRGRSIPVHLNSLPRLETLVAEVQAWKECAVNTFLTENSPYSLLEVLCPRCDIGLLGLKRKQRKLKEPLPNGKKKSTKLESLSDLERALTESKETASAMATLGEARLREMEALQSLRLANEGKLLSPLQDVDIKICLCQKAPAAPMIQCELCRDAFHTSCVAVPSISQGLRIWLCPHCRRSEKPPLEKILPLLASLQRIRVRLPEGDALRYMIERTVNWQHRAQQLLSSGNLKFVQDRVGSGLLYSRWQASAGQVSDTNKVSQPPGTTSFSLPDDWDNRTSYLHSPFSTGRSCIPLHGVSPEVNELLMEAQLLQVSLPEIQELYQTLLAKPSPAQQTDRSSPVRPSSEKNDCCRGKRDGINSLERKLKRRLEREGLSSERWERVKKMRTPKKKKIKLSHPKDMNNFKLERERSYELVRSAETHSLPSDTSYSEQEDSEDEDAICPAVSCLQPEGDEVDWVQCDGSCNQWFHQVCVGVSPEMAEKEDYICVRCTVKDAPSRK", "assay": "Primary screen for KDM5B Histone Demethylases FDH-coupled qHTS; further: nearly all actives have a fitted effect of over 70% in size; on activity change, negative = inhibition: 0% is about no effect", "conditions": "FDH-coupled NADH fluorescence (FDH is formaldehyde dehydrogenase); activity change, negative = inhibition: at 57.7 µM (top of the series) unless noted", "how_it_was_run": "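Inhibition is measured as reduced NADH fluorescence generation from FDH coupling to formaldehyde release. Truncated KDM5BΔAP at 200 nM final acts on H3K4me3 peptide (12.5 µM in substrate mix) in pH 7.5 HEPES buffer with Tween-20, 30 min, room temperature.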", "values": [{"smiles": "CCC(C(=O)Nc1nc2c(C)cccc2s1)c1ccccc1", "note": "(stereo not given)", "Potency": "inactive"}, {"smiles": "Cc1ccc(C(=O)N2CCC(c3nn(-c4ccc(Cl)cc4)c(=O)[nH]3)CC2)cc1", "Potency": "inactive"}, {"smiles": "CC(C)C(C(=O)Nc1ccc(NC(N)=O)cc1)c1ccc(Cl)cc1", "note": "(stereo not given)", "Potency": "inactive"}, {"smiles": "COc1ccc(-c2ccnc(N[C@H]3CO[C@H]4[C@@H]3OC[C@H]4OC(=O)Nc3cccc(OC)c3)n2)cc1", "Potency": "inconclusive: 31.6 µM [inhibitor, partial curve, poor fit]"}, {"smiles": "COc1ccc(Br)cc1CN1CCCC(C(=O)N(C)Cc2ccccc2)C1", "note": "(stereo not given)", "Potency": "inactive"}, {"smiles": "CCOC(=O)Nc1ccc2c(c1)nc1n2CCN(CCOC)C1", "Potency": "inconclusive: 28.2 µM [inhibitor, partial curve, poor fit]"}, {"smiles": "Cc1ccc(-n2c(=O)c3c(c4cc(C)ccc4n3C)n(Cc3ccc(F)cc3)c2=O)cc1", "Potency": "inconclusive: 15.8 µM [inhibitor, partial curve, poor fit]"}, {"smiles": "O=C(CSc1ncnc2c1sc1cccc(F)c12)NC1CC1", "Potency": "inconclusive: 22.4 µM [inhibitor, single point]"}, {"smiles": "O=c1c2ccccc2n2c(-c3ccccc3F)nnc2n1CCc1ccccc1", "Potency": "inconclusive: 15.8 µM [inhibitor, partial curve, poor fit]"}, {"smiles": "COc1ccc(-c2cc(C(=O)Nc3nnc(C)s3)no2)cc1", "Potency": "inactive"}, {"smiles": "COC(=O)c1c(NC(=O)c2ccccc2Cl)sc2c1CCC(C)C2", "note": "(stereo not given)", "Potency": "inconclusive: 10 µM [inhibitor, partial curve, poor fit]"}, {"smiles": "Cc1cccc(C(=O)N2CCCC(C(=O)N3CCN(c4ccccn4)CC3)CCNC(=O)CC2)c1", "note": "(stereo not given)", "Potency": "active: 15.8 µM"}, {"smiles": "CCCc1nnc([C@H]2CCN(C3CCN(C(C)=O)CC3)C2)o1", "Potency": "inconclusive: 31.6 µM [inhibitor, partial curve]"}, {"smiles": "Cc1cccc(Nc2ncncc2-c2nc(-c3ccccc3)no2)c1C", "Potency": "active: 28.2 µM"}, {"smiles": "Cc1[nH]c2ccccc2c1C(c1cccc(F)c1)c1c(C)[nH]c2ccccc12", "Potency": "inconclusive: 25.1 µM [inhibitor, single point]"}, {"smiles": "Cc1ccc(CNC(=O)c2sc3nc4n(c(=O)c3c2C)CCCCC4)cc1", "Potency": "inactive"}, {"smiles": "COc1ccccc1NC(=O)CSC1=Nc2ccccc2C2=NC(CC(=O)NCc3ccc4c(c3)OCO4)C(=O)N12", "note": "(stereo not given)", "activity change, negative = inhibition": "inconclusive: -40.5% [inhibitor]"}, {"smiles": "Clc1ccc(-c2cnc3n2C[C@H](CNCc2ccc4c(c2)OCO4)OC3)cc1", "Potency": "inactive"}, {"smiles": "O=C(CSc1nc2ccc(Cl)cc2[nH]1)Nc1ccc(S(=O)(=O)N2CCCCC2)cc1", "Potency": "inactive"}, {"smiles": "COc1cc(NC(=O)CCc2c(C)c3ccc(C)cc3oc2=O)cc(OC)c1OC", "Potency": "inactive"}, {"smiles": "COc1cc(-c2nc3ccc(C)cn3c2Nc2ccc3c(c2)OCO3)cc(OC)c1O", "Potency": "inconclusive: 14.1 µM [inhibitor, partial curve, poor fit]"}, {"smiles": "O=C1NCC(=O)N2C(c3ccccc3)c3[nH]c4ccccc4c3C[C@@H]12", "note": "(stereo not given in full)", "Potency": "inactive"}, {"smiles": "CC(C)N1C[C@H](O)C[C@H]1c1nnc2n1CCN(C(=O)c1cccs1)C2", "Potency": "inactive"}, {"smiles": "N#Cc1cccnc1NCCNC(=O)Nc1ccccn1", "Potency": "inconclusive: 22.4 µM [inhibitor, partial curve, poor fit]"}, {"smiles": "N#C/C(=C/c1ccc2ncccc2c1)c1nc2ccccc2[nH]1", "Potency": "inconclusive: 25.1 µM [inhibitor, single point]"}, {"smiles": "COCCN1C(=O)c2cccn2CC1CNC(=O)NCc1ccccc1", "note": "(stereo not given)", "Potency": "inactive"}, {"smiles": "Cc1nnc([C@H]2CCN(Cc3ccco3)C2)o1", "Potency": "inconclusive: 14.1 µM [inhibitor, partial curve]"}, {"smiles": "Cc1ccc(CNC(=O)c2ccc(NC(=O)Cn3c(C)cc(C)c(C#N)c3=O)cc2)o1", "Potency": "inactive"}, {"smiles": "CCCCCn1c2c(c(=N)c3ccccc31)CCC2", "Potency": "inconclusive: 22.4 µM [inhibitor, single point]"}, {"smiles": "CC(C)Oc1ccc(CNC(=O)c2ncoc2-c2cccs2)cc1", "Potency": "inconclusive: 31.6 µM [inhibitor, single point]"}, {"smiles": "Cc1cccc(NC(=O)c2ccc(CNS(=O)(=O)c3ccc4c(c3)C(C)(C)C(=O)N4C)cc2)c1", "Potency": "inconclusive: 28.2 µM [inhibitor, single point]"}, {"smiles": "COc1ccc(C(=O)CN2CCN(c3ncccn3)CC2)cc1", "Potency": "inconclusive: 15.8 µM [inhibitor, single point]"}, {"smiles": "CCCCOC(=O)c1cccc(NC(=O)/C=C/c2ccccc2Cl)c1", "Potency": "inconclusive: 35.5 µM [inhibitor, single point]"}, {"smiles": "CCc1nnc(NS(=O)(=O)c2ccc(NC(=O)c3ccccc3O)cc2)s1", "Potency": "inconclusive: 28.2 µM [inhibitor, single point]"}, {"smiles": "O=C(CCc1cc2n(n1)CCCNC2)Nc1ccc(-n2cncn2)cc1", "Potency": "inconclusive: 3.98 µM [inhibitor, partial curve]"}, {"smiles": "Cc1ccccc1N1C(N)=C(C#N)C(c2ccsc2)C2=C1CC(C)(C)CC2=O", "note": "(stereo not given)", "Potency": "inconclusive: 39.8 µM [inhibitor, single point]"}, {"smiles": "O=C(c1cccnc1OC1CCN(Cc2ccccn2)C1)N1CCCCC1", "note": "(stereo not given)", "Potency": "inconclusive: 10 µM [inhibitor, partial curve]"}, {"smiles": "O=C(NCC1(COc2cnccn2)C[C@@H](O)[C@@H](O)C1)C1CCOCC1", "note": "(stereo not given in full)", "Potency": "inconclusive: 28.2 µM [inhibitor, single point]"}, {"smiles": "CN(Cc1cccnc1)c1nc2c(c(=O)[nH]1)CCN(Cc1ccc3cc[nH]c3c1)CC2", "Potency": "inconclusive: 25.1 µM [inhibitor, single point]"}, {"smiles": "COc1cc(C(=O)N(Cc2cccnc2)c2nc3cc(C)c(C)cc3s2)cc(OC)c1OC", "Potency": "inconclusive: 2 µM [inhibitor, full curve, poor fit]"}, {"smiles": "COC(=O)c1cc(N)cc(C(=O)OC)c1", "Potency": "inconclusive: 22.4 µM [inhibitor, partial curve, poor fit]"}, {"smiles": "COc1ccc(-c2noc(CNC(=O)c3cc4cccc(OC)c4o3)n2)cc1", "Potency": "inconclusive: 39.8 µM [inhibitor, single point]"}, {"smiles": "COc1ccc(Cn2c(C3CCN(C(=O)c4cccc(C)c4)CC3)n[nH]c2=O)cc1", "Potency": "inactive"}, {"smiles": "Cc1oc(C)c2c(=O)cc(-c3ccc4c(c3)OCO4)cc(OC(=O)c3cccc(Cl)c3)c12", "Potency": "inconclusive: 7.08 µM [inhibitor, partial curve, poor fit]"}, {"smiles": "Cc1ccc2c(CN(C)CCOc3ccc(Cl)cc3)cc(=O)oc2c1", "Potency": "inactive"}, {"smiles": "Cc1cc(C)c(/C=N/Nc2cc(C(F)(F)F)ccc2Cl)c(C)c1", "Potency": "inconclusive: 20 µM [inhibitor, partial curve, poor fit]"}, {"smiles": "COc1ccc(S(=O)(=O)N(Cc2nc(-c3ccc(Cl)cc3)no2)C2CCCCC2)cc1", "Potency": "inconclusive: 1.41 µM [inhibitor, partial curve, poor fit]"}, {"smiles": "N#Cc1c(C(F)(F)F)cc(-c2cccs2)nc1SCC(=O)Nc1cccc(C(F)(F)F)c1", "Potency": "inconclusive: 39.8 µM [inhibitor, single point]"}, {"smiles": "C/C(=N\\N=C1\\NC(=O)C(CC(=O)O)S1)c1ccccn1", "note": "(stereo not given)", "Potency": "inconclusive: 31.6 µM [inhibitor, partial curve, poor fit]"}, {"smiles": "O=C(NCC(=O)N1CCN(c2cccc(Cl)c2)CC1)NCc1ccc(F)cc1", "Potency": "inactive"}, {"smiles": "Cc1ccc(Cn2c(=O)n(-c3cc(C)cc(C)c3)c(=O)c3oc4ccccc4c32)cc1", "Potency": "inconclusive: 44.7 µM [inhibitor, single point]"}, {"smiles": "Cn1c(=O)c(=O)n(C)c2cc(S(=O)(=O)N3CCCC3C(=O)Nc3ccc(F)cc3)ccc21", "note": "(stereo not given)", "Potency": "inconclusive: 25.1 µM [inhibitor, partial curve, poor fit]"}, {"smiles": "CCOc1ccc(CNC(=O)Cn2ccc3cc(S(=O)(=O)N4CCCCC4)ccc32)cc1", "Potency": "inconclusive: 35.5 µM [inhibitor, single point]"}, {"smiles": "CCC(C(=O)Nc1ccc(C(=O)OC)cc1)n1nc(-c2ccc(C)c(C)c2)ccc1=O", "note": "(stereo not given)", "Potency": "inconclusive: 31.6 µM [inhibitor, partial curve, poor fit]"}, {"smiles": "CCCCN(C)C(=O)C1CCN(S(=O)(=O)c2c(C)noc2/C=C/c2ccccc2F)CC1", "Potency": "inconclusive: 39.8 µM [inhibitor, single point]"}, {"smiles": "CN1[C@@H](CCC(=O)NCc2ccco2)CNC(=O)[C@@H]2[C@H]1CCN2Cc1ccccn1", "Potency": "inconclusive: 39.8 µM [inhibitor, partial curve, poor fit]"}, {"smiles": "COc1cc(NC(=O)Cn2nc(-c3ccccc3)c3c(c2=O)CCCC3)cc(OC)c1", "Potency": "inactive"}, {"smiles": "CCOc1ccc(Nc2sc(C(=O)c3cccc(OC)c3)c(N)c2S(=O)(=O)c2ccccc2)cc1", "Potency": "inconclusive: 5.62 µM [inhibitor, partial curve, poor fit]"}, {"smiles": "COc1cc2c(cc1OC)C(C[C@H]1CN(C(=O)c3cccn3C)CC[C@H]1CC(=O)O)=NCC2", "Potency": "active: 31.6 µM"}, {"smiles": "O=C1Nc2ccccc2O[C@H]2C[C@@H]1N(Cc1ccc3ccccc3n1)C2", "Potency": "inconclusive: 39.8 µM [inhibitor, partial curve, poor fit]"}, {"smiles": "Cc1cc(C)nc(N/N=C/c2ccc([N+](=O)[O-])cc2)n1", "Potency": "inactive"}, {"smiles": "CC(C)c1cc(=O)oc2cc(OS(=O)(=O)c3ccc(S(C)(=O)=O)cc3)ccc12", "Potency": "inconclusive: 25.1 µM [inhibitor, single point]"}, {"smiles": "CN(C)c1ccc(C(CNS(=O)(=O)c2ccc(F)cc2)N2CCOCC2)cc1", "note": "(stereo not given)", "Potency": "inconclusive: 5.01 µM [inhibitor, partial curve, poor fit]"}, {"smiles": "CCc1ccc(C(=O)CSc2nnc(-c3ccc(Cl)cc3)n2CCOC)cc1", "Potency": "inactive"}, {"smiles": "COc1cc(Br)c(/C=C(/C#N)C(=O)c2ccccc2)cc1OC", "Potency": "inconclusive: 39.8 µM [inhibitor, single point]"}]}]}
